# Results from the supplement of paper PMC11417369.
# The list shows a part of the results.
# Tested on: PfAP2-HC AP2 domain (GST-tagged)
# Test: gcPBM binding intensity (ln(normalized median fluorescence intensity)); higher = stronger DNA binding
# Procedure, shortened: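 GST-tagged P. falciparum DNA-binding domains produced in E. coli were incubated for 1 h on an Agilent 4 × 180k array of primer-extended double-stranded 36-bp intergenic genomic probes with negative controls. Binding intensity is the highest Masliner-normalised natural-log median intensity across replicate spots of either probe orientation, with bound protein detected by Alexa488 anti-GST antibody at 488 nm.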
row,Sequence,gcPBM binding intensity (ln)
1,TTTAATTATTAAATGGTGCACTTGAAATATAAAAAT,9.52
2,CTTTTAATGGTGTAAAGTACTTTCTTAAGGTTCAAA [XGTACX_site8423],9.36
3,TATACAACGTTAAGCACACACAAAAAAAATTTAATA [CACACA_site3086],10
4,ATATATGGGGCGCAGGAAAAGAGTTTTGGAAATAAA [CACACA_negctrl_site1265],9.63
5,AAGTTATATAAAGGAACACACATTTGATTTTATTTT [CACACA_site6814],9.79
6,TGTAATCTGGAGAAAAGTACACAGTATCTGGTAGCT [XGTACX_site2039],9.58
7,ATTTAAATTATAAAATGTACATTTAACAAATTTTAT [XGTACX_site770],9.48
8,TAACATTATATATATTGTACATAGTAAATATTATAT [XGTACX_site5421],9.57
9,ATTATTTATTATTTCTGTACGTATAAAAATAACATT [XGTACX_site1671],9.62
10,ATAAAACATAAAAATCGTACAAAGGAGGATATAAGG [XGTACX_site420],9.94
11,TGGAGGTCAGTTCACAGTACCCAGAAAACTCTACGA [XGTACX_site2561],9.18
12,AAAATGATGTTAATTACACACATCATCTCATAAACA [CACACA_site3017],9.79
13,TTTTTTTTGGTTTTCATGCACACAATTTATAAATCT [CACACA_site3107],10
14,AAAGTAAAAAAAAAAACATGCACATATTTACTTTAT [TGCATGCA_site849],9.8
15,AAGGGAATATACCTTACACACAAAAATGCAGATATA [CACACA_site1451],9.96
16,CTAATCAAAATAAATTAACACACAATTTTAATATTG [CACACA_site7887],9.54
17,ATATACTTACATATTACACACAATATTTTTAAATGT [CACACA_site3627],9.97
18,GTTAATATACTTAATACACACACGAATATATATAAA [CACACA_site1181],9.99
19,AAAAAAAAAAAGAAGGAAACATTTGACCAAAAATAT [GTGCAC_negctrl_site404],9.58

row,Sequence,gcPBM binding intensity (ln)
1,ATTCTATACATATATATACACACGTAGTTTCTATTT [CACACA_site2223],9.9
2,ATTTTATTTTCATATGAACACACATATATATATTAT [CACACA_site8741],10.1
3,AACAACCAAAGGCACACACACAAAAAAAAAAATATA [CACACA_site399],10.5
4,CTGCGTTTAATATGCGTGCACCTTGGTTTTATATCT [GTGCAC_site9525],9.83
5,AAAAAAAAAAAATATTGTAGAATATGATGACTTTGT [GTGCAC_negctrl_site554],9.64
6,TTTTAAATATGCCATACACACTACTATATAATAAAT [CACACA_site5119],9.68
7,ACATAAGATGAAAAATGTACATTCAAAAAATGAAAT [XGTACX_site3227],9.84
8,TGATAAGGATGTGAATTACTCAAAGGAAGTAATCAT [CACACA_negctrl_site1432],9.52
9,ACAAAACTGTCTTTCACACAGAAATAAAAAAAAAAA [CACACA_site5829],9.26
10,AAATTTCATGGGTATTGTACATAATTTTATTATATA [XGTACX_site4988],9.62
11,TATTTACACCCATGCGCACACATAAATAAATAATAG [CACACA_site5350],9.98
12,TATATATATGTATGTGGTACTTATATTATATACATA [XGTACX_site4550],9.6
13,CCATGTAGTGAATAGGTGCATATCAAAAAAAAAAAA,9.49
14,ACAGAAAATAAAATTTGTACATATATAGAATAAAGA [XGTACX_site3014],9.74
15,ATACATATGGTGGATCGTACATATATATAATATGTA [XGTACX_site8631],9.69
16,AGATATTATTTATATATTTATATATATATATAGATA [TGCATGCA_negctrl_site77],9.41
17,AGAGAAAAAAAAAATTGTACGTATGTAATAATATGC [XGTACX_site2981],10.1
18,TAAATATCAAGACACACACACAAAAGTGAATAAATA [CACACA_site7723],10.3
19,AAAGTAAAAGAAAGCACACACACATGGATTTATGTA [CACACA_site5997],10.9

row,Sequence,gcPBM binding intensity (ln)
1,TTCTTTTTAAATTACACACACATATATATATGTATA [CACACA_site3515],10.1
2,TGTTGTATTGAAGCTAAAAAATGAGGCAAAAAAAAA [CACACA_negctrl_site1189],9.58
3,ATTTATGAGTAATACACACACTTGTGGATATATTAC [CACACA_site7735],9.83
4,TTTATATAATATAAATTTTTTTTGCAGTAATAAAAA [TGCATGCA_negctrl_site570],8.98
5,ACTTCAAAAAAAAAAAAATATATATATATATATTAT [GTGCAC_negctrl_site158],9.33
6,TTATACACAAAAAAAAAAATATATATATATATATAT [XGTACX_negctrl_site5],9.49
7,TCATACATGTATATGTGTACATATAATGTATATTCC [XGTACX_site6082],9.6
8,TTATATTCTTTTCTCTTTCTACTTTTTTTTTTTTTT [XGTACX_negctrl_site317],9.6
9,AAGAAAAACTTATATATATATATATATATATATATA [TGCATGCA_negctrl_site466],9.93
10,TATAAATATTTATGTACACACATATACATGTTGAAT [CACACA_site5684],10
11,AAAAAAAAAAAAAAAAGTACAAAAAGAAGAAAAAAA [XGTACX_site6521],9.64
12,TTTTTTTTTTTTTTTTTTTTTTTATGTTCTTAAAAA [GTGCAC_negctrl_site62],8.63
13,AAAATATAGGTATGCACACACATATACTTCTGTGCA [CACACA_site1409],10.2
14,TTTTTTTTTTTTACGTGTACATAAATGTTAAGTAAT [XGTACX_site3901],9.51
15,AAAAAAAATTTAATTGCACACAGGAAAATATAATTT [CACACA_site3810],9.73
16,TAAATACAGAGGAAAATACACACGTATATATATAAA [CACACA_site3410],9.89
17,TATAAATATACAAACACACATACAAACATATATATA [CACACA_site1120],10.2
18,TTAATACCCAGACACACACACACAAAATAAAATACA [CACACA_site7968],11
